Assay results taken from PubChem BioAssay AID588855 (National Center for Advancing Translational Sciences (NCATS), 2011).
Among all 410,000 compounds or so, about 5,000 (1.2%) were called active. The shares of active, inactive and inconclusive entries below differ from those in the screen. Calls come from the whole dose curve; as a rule, active = well fitted inhibition curve with a large enough effect; inconclusive = small, poorly fitted or top-dose-only effect; inactive = no such curve, though single readings can be large or run the other way. Potencies beside an inconclusive call are fits to weak or partial responses and may not hold up.

experiment: qHTS for Inhibitors of TGF-b; conditions: HepG2 CAGA-GFP TGF-b/SMAD3 reporter, GFP fluorescence, 18 h, TGF-beta stimulated, 500 pg/mL final; series mostly up to 46.1 µM; activity, negative = inhibition: at the top concentration; note: nearly all actives have a fitted effect of over 65% in size
In short: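 Cell-based qHTS in HEPG2 carrying a CAGA-GFP Smad reporter; compounds added before 500 pg/mL final TGF-beta, 18 h incubation at 37 degrees C, GFP fluorescence quantified per cell by imaging cytometry.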
% is set by controls: 0 for no effect and ±100 for the full control effect; potency is the fitted concentration of half-maximal effect; tags give direction and shape of the fitted curve.

| Structure (SMILES) | Potency | activity, negative = inhibition |
| --- | --- | --- |
| CCS(=O)(=O)c1ncc(Cl)c(C(=O)Nc2ccc(C)cc2)n1 | inconclusive: 35.5 µM [inhibitor, single point] | – |
| CC(C)(C)OC(=O)NCCCCCNC(=O)c1[nH]cnc1C(=O)Nc1ccc(Cl)cc1 | inconclusive: 25.1 µM [inhibitor, partial curve, poor fit] | – |
| CCN(CC)C(=O)C(=O)c1cc(C)n(-c2ccc(F)cc2)c1C | – | inactive: -13.6% |
| Cc1[nH]n(-c2ccc([N+](=O)[O-])cc2)c(=O)c1C=NCC1CCCO1 (stereo unspecified) | inconclusive: 2.82 µM [inhibitor, partial curve, poor fit] | – |
| COc1cccc(/C=N/Nc2ncnc3c2ncn3Cc2ccccc2)c1O | inconclusive: 2.51 µM [inhibitor, partial curve, poor fit] | – |
| CCOC(=O)COc1c(Cl)cc(C2NC(=S)NC(c3ccccc3)=C2C(C)=O)cc1OC (stereo unspecified) | inconclusive: 35.5 µM [inhibitor, single point] | – |
| O=[N+]([O-])c1ccc(NN=Cc2cc(Br)ccc2O)nc1 | inconclusive: 22.4 µM [inhibitor, single point] | – |
| C=CCOC(=O)C1=C[C@@H](c2cn(C(C)=O)c3ccccc23)C[C@@H](OCc2ccc(CO)cc2)O1 | inconclusive: 28.2 µM [inhibitor, single point] | – |
| O=C1NC[C@H](Cc2ccccc2)N(CC2CCN(CCCC3CCCC3)CC2)C1=O | – | inactive: -13.2% |
| CC(C)(C)n1ncc2c(=O)n(CC(=O)NCc3ccccc3)cnc21 | – | inactive: 15.4% |
| CCOc1ccc(NC(=O)Cn2cc(C(=O)c3ccc(CC)cc3)c(=O)c3cc(OC)c(OC)cc32)cc1 | inconclusive: 12.6 µM [inhibitor, partial curve, poor fit] | – |
| N/C(=N\OC(=O)Nc1ccc(Cl)c(Cl)c1)c1ncc(C(F)(F)F)cc1Cl | inconclusive: 20 µM [inhibitor, single point] | – |
| CC(C)c1ccccc1NC(=O)c1cccnc1 | inconclusive: 5.62 µM [inhibitor, single point] | – |
| CCN(CC)C(=O)c1sc2nc(-c3ccc(OC)cc3)cn2c1C | inconclusive: 2.82 µM [inhibitor, single point] | – |
| CC1CCc2c(sc3nc(C4CC4)nc(N4CCN(C(=O)c5ccco5)CC4)c23)C1 (stereo unspecified) | inconclusive: 35.5 µM [inhibitor, single point] | – |
| COc1ccc(NS(=O)(=O)c2cccc(C(=O)O)c2)cc1S(=O)(=O)N1CCCCC1 | – | inactive: -2.33% |
| COc1ccc(C(C#N)=Cc2ccc(N(C)CCC#N)cc2)cc1 | – | inactive: 0.53% |
| COc1ccc(-c2c3c(=O)n(C)c(=O)n(C)c3c3c(-c4cccc(C)c4)nc4ccccc4n23)cc1 | inconclusive: 1.78 µM [inhibitor, partial curve, poor fit] | – |
| COc1ccc(C(=O)N2CCCC(CCC(=O)NCc3ccc(F)c(F)c3)C2)o1 (stereo unspecified) | – | inactive: -6.72% |
| CCn1c2ccccc2c2cc(CN3CCN(Cc4ccccc4Cl)CC3)ccc21 | inconclusive: 12.6 µM [inhibitor, partial curve] | – |
| CC(=O)Nc1ccc(NC(=O)c2nc(S(=O)(=O)Cc3cccc(C)c3)ncc2Cl)cc1 | inconclusive: 11.2 µM [inhibitor, partial curve, poor fit] | – |
| CCC(=O)NNc1nc2c(F)cc(F)cc2s1 | – | inactive: -1.47% |

| Structure (SMILES) | Potency | activity, negative = inhibition |
| --- | --- | --- |
| COc1ccc(S(=O)(=O)N2CCCCC2)cc1C(C)C | inconclusive: 22.4 µM [inhibitor, single point] | – |
| COc1ccc(S(=O)(=O)N2CCCC2CNC(=O)C(=O)NCc2cccs2)cc1 (stereo unspecified) | – | inactive: -12.4% |
| Oc1cc(OCc2ccccc2)ccc1-c1[nH]ncc1-c1ccccc1 | inconclusive: 15.8 µM [inhibitor, partial curve, poor fit] | – |
| Cc1cc(C(F)(F)F)nn1CC(=O)NNC(=S)Nc1ccc(F)cc1 | – | inactive: 4.02% |
| CC(=O)Oc1ccc([C@@H]2COc3c(ccc4c3C=CC(C)(C)O4)C2)c(OC(C)=O)c1 | inconclusive: 22.4 µM [inhibitor, single point] | – |
| CCOc1ccc(C(=O)NC(=S)N(Cc2ccccc2)Cc2ccccc2)cc1 | – | inactive: -19.4% |
| NS(=O)(=O)c1cc2c(cc1Cl)NC(c1ccccc1OCC(=O)O)NS2(=O)=O (stereo unspecified) | – | inactive: 10.7% |
| CC1CCN(c2nc3ccccn3c(=O)c2C=O)CC1 | – | inactive: -0.065% |
| COCc1ccc(CN2CCC(CO)(CC3CCCCO3)CC2)o1 (stereo unspecified) | – | inactive: -0.0607% |
| CC1=C(C(=O)N2CCOCC2)CC(CC(=O)NC2CC2)C(=O)N1Cc1ccc(C(C)(C)C)cc1 (stereo unspecified) | inconclusive: 2.82 µM [inhibitor, partial curve, poor fit] | – |
| O=C(Nc1nc2ccccc2[nH]1)c1ccccc1 | inconclusive: 35.5 µM [inhibitor, single point] | – |
| Cc1ccccc1Sc1ncnc2onc(C)c12 | inconclusive: 28.2 µM [inhibitor, single point] | – |
| CCOc1ccc(NC(=O)CSc2nc(C)c(C(=O)Nc3ccccc3)c(-c3ccc(Cl)cc3)c2C#N)cc1 | inconclusive: 3.55 µM [inhibitor, partial curve, poor fit] | – |
| CCc1cccc(-n2c(C)nc3c(cnn3-c3ccc(C)c(C)c3)c2=O)c1 | inconclusive: 17.8 µM [inhibitor, partial curve, poor fit] | – |
| CCc1ccccc1NC(=O)Nc1ccc2c(c1)N(CC)C(=O)c1ccccc1S2 | active: 11.2 µM | – |
| Cc1ccc(-c2nnc(N3CCN(C(=O)COc4ccccc4)CC3)c3ccccc23)cc1 | inconclusive: 17.8 µM [inhibitor, single point] | – |
| COc1ccccc1-c1cc(SC)c(C#N)c(=O)o1 | inconclusive: 15.8 µM [inhibitor, single point] | – |
| Cc1ccc(S(=O)(=O)N2CCN(CCOc3cccc(C)c3)CC2)cc1 | inconclusive: 35.5 µM [inhibitor, single point] | – |
| O=C(NC1CCCCC1)N(c1ccccc1)c1nnc(-c2cccc([N+](=O)[O-])c2)s1 | – | inactive: 3.96% |
| CCOc1ccccc1CNC(=O)c1cc2n(n1)CCCN(Cc1ccc(C)cc1)C2=O | inconclusive: 7.08 µM [inhibitor, full curve, poor fit] | – |
| CC1(Oc2ccccc2-c2ccno2)CCN(Cc2ccc(-c3ccccc3)o2)C1 (stereo unspecified) | inconclusive: 20 µM [inhibitor, single point] | – |
| C=COCCNC(=O)Nc1ccc(Cl)cc1Cl | inconclusive: 5.01 µM [inhibitor, full curve] | – |

| Structure (SMILES) | Potency | activity, negative = inhibition |
| --- | --- | --- |
| COc1cc(F)ccc1-c1csc(C(O)(c2ccccc2)C(F)(F)F)n1 (stereo unspecified) | inconclusive: 35.5 µM [inhibitor, single point] | – |
| Cc1ccccc1CSc1nc2n(n1)C(c1cccs1)C1=C(CCCC1=O)N2 (stereo unspecified) | inconclusive: 35.5 µM [inhibitor, single point] | – |
| CCC(=O)Nc1c(-c2ccc3ccccc3c2)nc2ccccn12 | – | inactive: 9.53% |
| O=C(CN1CCC(C(=O)c2ccc(Cl)cc2)CC1)Nc1ccc2c(c1)OCCO2 | inconclusive: 35.5 µM [inhibitor, single point] | – |
| O=C(c1ccc(CSc2nc3ccncc3n2Cc2ccc(F)cc2)cc1)N1CCCCCC1 | inconclusive: 17.8 µM [inhibitor, single point] | – |
| O=[N+]([O-])c1c(NCCO)cc(Sc2nc3ccccc3s2)c2nonc12 | inconclusive: 22.4 µM [inhibitor, single point] | – |
| CN(Cc1ccccc1)Cc1nc2c(c(=O)n(C)c(=O)n2C)n1CCc1ccccc1 | – | inactive: -13.9% |
| CCN(C(=O)/C=C/c1cc(OC)c(OC)c(OC)c1)C1CCCCC1 | inconclusive: 35.5 µM [inhibitor, partial curve, poor fit] | – |
| Cc1cc(C)nc(NS(=O)(=O)c2ccc(NC(=O)C3(c4ccccc4)CCCC3)cc2)n1 | inconclusive: 0.501 µM [inhibitor, full curve, poor fit] | – |
| CC1CCC2(CC1)NC(=O)N(CC(=O)Nc1ccc3[nH]c(=O)[nH]c3c1)C2=O (stereo unspecified) | – | inactive: -15% |
| O=C(CN(Cc1ccccc1)S(=O)(=O)c1ccccc1)N/N=C/c1ccc2c(c1)OCO2 | inconclusive: 22.4 µM [inhibitor, single point] | – |
| Cc1nnc(NC(=O)C2CCN(S(=O)(=O)c3cc([N+](=O)[O-])ccc3Cl)CC2)o1 | – | inactive: -22.3% |
| CC(Sc1nnc(Cc2cccs2)n1C1CCCCC1)C(=O)NCc1ccco1 (stereo unspecified) | – | inactive: -11.6% |
| NC1=NC2(CCC(c3ccccc3)CC2)n2c(nc3ccccc32)N1 (stereo unspecified) | inconclusive: 20 µM [inhibitor, single point] | – |
| O=C(c1ccc(-c2ccccc2Cl)o1)N1CCN(c2ccccc2O)CC1 | inconclusive: 22.4 µM [inhibitor, single point] | – |
| CCOC(=O)N1CCN(C(=O)CSc2cc(C)nc3c(-c4ccccc4OC)c(C)nn23)CC1 | inconclusive: 11.2 µM [inhibitor, single point] | – |
| O=C1C(=O)N(c2nccs2)C(c2ccccc2F)/C1=C(\O)c1ccc2c(c1)OCCO2 (stereo unspecified) | inconclusive: 7.08 µM [inhibitor, partial curve] | – |
| COc1cccc(NC(=O)Cn2c(=O)n(-c3ccc(Cl)cc3)c(=O)c3oc4ccccc4c32)c1 | inconclusive: 0.891 µM [inhibitor, full curve] | – |
| Fc1ccc(C2c3cccn3CCN2C(=S)Nc2cccc(Br)c2)cc1 (stereo unspecified) | inconclusive: 35.5 µM [inhibitor, single point] | – |
| COc1ccc(C2CC(=O)N(Cc3ccc(F)cc3)c3ccccc3S2)cc1 (stereo unspecified) | active: 15.8 µM | – |
| CSCCC(NC(=O)c1ccccc1Cl)C(=O)NNC(=O)c1ccccc1O (stereo unspecified) | – | inactive: -0.464% |
| S=C(c1ccc(-c2ccc(Cl)cc2Cl)o1)N1CCCCC1 | inconclusive: 35.5 µM [inhibitor, single point] | – |
